# Assay results published in the supplement of paper PMC11417369.
# Some of the results follow.
# System: PfSIP2 AP2 domain 1 (GST-tagged)
# Test: gcPBM binding intensity (ln(normalized median fluorescence intensity)); higher = stronger DNA binding
# In short: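 Alexa488 anti-GST antibody, scanned at 488 nm, detected GST-tagged P. falciparum DNA-binding domains that had been expressed in E. coli and incubated for 1 h on an Agilent 4 × 180k array. The array carried primer-extended double-stranded 36-bp intergenic genomic probes and negative controls. Binding intensity is the highest Masliner-normalised natural-log median intensity across replicate spots of either orientation of each probe.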
row,Sequence,gcPBM binding intensity (ln)
1,TTTTTATTGTTATAGTTATAATATATTATTTGATTA [XGTACX_negctrl_site27],7.04
2,AATAATTGTTAAAGCTGTACAATACTTATATAAGAA [XGTACX_site5729],7.09
3,TATCCTAACTTTAGATGTACACAAATAAAAAAAAAA [XGTACX_site4491],7.37
4,CCATATAAAATATAAAAACACACGTATATATACATA [CACACA_site1511],6.88
5,ATTCAATCTTTTAATACACACAATTTATTTCAAAAC [CACACA_site835],7.07
6,ACAAAATGTAGAAAATGTACAAAATTAACAAAAGAA [XGTACX_site5019],7.28
7,TGTACATATATATAGATATATATAGATATATATATA [CACACA_negctrl_site1678],8.69
8,TTTTAAAAAGATCATTAAAAAAAAAAAAAGAACAAA [CACACA_negctrl_site528],6.88
9,ATAATATAACAATACGCACACGTATACAAAAAAAAA [CACACA_site5703],7.25
10,AAATAATGGTTAGCTACACACAAAGCATTTTTTGAA [CACACA_site1016],6.66
11,AAAATACAAACAAGTGGTACTGTTTATAAATGGTTG [XGTACX_site1503],6.81
12,TTGTATATATTTATATGTACATATATTACTTTTGCT [XGTACX_site2449],7.15
13,TGTCTTGTAAATTATTGTACTATTTAAAGTATACAA [XGTACX_site7864],7.21
14,TTGATTACACTGAAGTGTACATATATATATATATAT [XGTACX_site3532],9.07
15,AATATCCACATTAGGAGTACACAGCTAACTGTTTGA [XGTACX_site3357],6.94
16,TTTTATATAAAATCGTGTACATACCATTTCCTATTA [XGTACX_site5159],7.06
17,AAAAAAAAAAGAAACACACACATTTGTATATAATAT [CACACA_site2078],6.91
18,AAATAATAAAAAAAATGTACACGTAAATATTATATT [XGTACX_site8125],7.17
19,CATATAAAAATGTGCACACACACACCCATATATATT [CACACA_site1526],9.06
20,AAAATTAATAAATAAACACACATATATATATATATA [CACACA_site2598],9.24
21,TTTTTGCCATATTACACACACACATGTAAACCCCCT [CACACA_site1647],8.17
22,GTGAAATATGCAAACACACACGAGAAAAATGTATAT [CACACA_site7488],7.35

row,Sequence,gcPBM binding intensity (ln)
1,CAAAACAAAACGTATGCACACAATTAATATATTAAA [CACACA_site3405],7.9
2,AGAGTTCTCATATGCACACAAAAAACTTTCATTTAT [CACACA_site45],8.3
3,AAATAAATCTTATGCACACAAATAATTAATTAAACA [CACACA_site1693],8.36
4,TATTTTTTTCTTACATACTAATTTGGTACTCACATA [TGCATGCA_negctrl_site81],7.1
5,AACCCCGTGGAAATATGTACATATAAATATATAAAT [XGTACX_site2094],6.99
6,TAAATAAGCACATACACACATACATACATACATAAA [CACACA_site4017],7.22
7,ATAAAATGATAAATTTGTACACAAAAAAAAAAAAAA [XGTACX_site964],6.95
8,AAAATAAAATATTTCTGTACTTATAACTATTCTATA [XGTACX_site8007],6.88
9,GGGTATACAAATAAACGTACAAACTCATAAAAAAAA [XGTACX_site3191],7.11
10,CATATATAACAATTCTCACACATAAAAAAAAAAAAT [CACACA_site4564],7.05
11,TTAAAAAAATATAATACACACCAAAAATATGCACAT [CACACA_site5209],9.27
12,TTTTTATGGTAAATAAAAATATCTCCCTCCTTAATT [CACACA_negctrl_site1352],6.68
13,TAATAATTTATAATAGTGCATTTGATTTTAAAAATA,8.81
14,TCTTTTTAAACTAATAGTACATATATATTAATAAAT [XGTACX_site4217],7.14
15,ATTTACATAAATTGCATATATCGATGTAAATAAATA [CACACA_negctrl_site1150],7.04
16,ATATATATATATATATGTACATATATTTATTTATTG [XGTACX_site6267],9.79
17,CATTTATTTTTGTTCTGTACATAAAGATGAACAAAA [XGTACX_site6797],7.25
18,ATAAATATGTAAAAAACATGCAAAAAATTAAAGACA [TGCATGCA_site912],7.08
19,TCATAGTAGAAACACACACACACACCCATATATATA [CACACA_site1737],7.58
20,GGAAACAAAAAATATATACACACTAAACATAAAAAA [CACACA_site20],6.89
21,AACGCACATATATTTATGTATATATATATATATATA [GTGCAC_negctrl_site478],9.51
22,TTATTAAATAAAATCATGCACACAATATATATTTTA [CACACA_site2496],7.78

row,Sequence,gcPBM binding intensity (ln)
1,GTTATTAAACAGAAAAGTACATATGTATATTAAAAT [XGTACX_site3724],7.28
2,TAAAAAAAAAGAAGCTGTACTAAAAAATTTATATTA [XGTACX_site7408],6.74
3,TTATTACATAACAATATACACACTATTGATTAAAGA [CACACA_site2933],7.01
4,AAATTCATAAAAATATTTTATAATTATATATAGAAT [TGCATGCA_negctrl_site343],6.74
5,GGGTTTTTTATTAATACATGCATGGAAACGCACTAT [TGCATGCA_site1000],10.3
6,ATATATATATAATTTGTACACACAAATATGCATATA [CACACA_site9136],8.94
7,AAGAAAAACAATGAGATAAAGAAGAGAAAATATGTC [TGCATGCA_negctrl_site415],7.24
8,AATACTAAAAAGTGTACACATACATAAAAAATTGCA [CACACA_site5620],7.47
9,AAGAAAAAAGTTATTAGTACACATTATAATAAAAAG [XGTACX_site3527],7.19
10,TATTGATTTATAAACACACACTCGAAGATGTTTAAC [CACACA_site4760],6.93
11,TATATCTCATAGTATACACACACACCCACCCACATA [CACACA_site8513],7.44
12,TATATATATGTAAATCGTACAAATTATATATATCAT [XGTACX_site2821],7.19
13,TAATTTTCTTTTTATCGTTTTTTTTTTTTTTTTTTT [XGTACX_negctrl_site432],7.79
14,CATTATGTTGTAAATACACACATACATATACATACA [CACACA_site8143],7.06
15,ATATATTATTTCTAGTGTACATACCCATATATAATA [XGTACX_site8902],7.29
16,ATAAATAAGATATATACACACATATCTATACATATT [CACACA_site6369],6.89
17,AATCCACTTTTTTATGTTATACAATATAAATTAAAT [XGTACX_negctrl_site446],7.13
18,ATTTAAGAAAAAAGTTGTACTTATTTATTTTTATTT [XGTACX_site5561],6.99
19,GGCTAAAAGGGGCACACACACAAAAAAAAAAAAAAA [CACACA_site3288],8.53
20,TAAAAAATAAATATATGTACATATTTATTTTTTTTT [XGTACX_site850],7.03
21,ATATTTTTTTTTTCGTGTACGCATAAATATATCTAA [XGTACX_site3360],7.3
22,TAGATAAACAAGAAATGTACAAACGTAAATATGTTC [XGTACX_site2373],6.73

row,Sequence,gcPBM binding intensity (ln)
1,ACAAAAATAAACTATAGTACACACTTATTATTATGA [XGTACX_site5680],6.91
2,TCATTTTATTTTTTCACACACACATCTATATTTATA [CACACA_site7547],7.36
3,TAAGTAACTTTTAAAAGTACCCACACATATATATAT [XGTACX_site1231],9.01
4,TTTCTTTTTTTTTTTTTTTTTTTTTTTTTTTTTTTT [TGCATGCA_negctrl_site91],8.99
5,TTTCCCTTGTTGTAAACATGCACAATATTTAGGTAT [TGCATGCA_site49],7.99
6,AAAAAAAAGAAAAACACACACATATATATATAGAAT [CACACA_site1006],6.98
7,TTATGTATTTATATAAATATAAATATATATATATAT [CACACA_negctrl_site774],9.1
8,TATATTTATAGGTATACACACATATGTATGTTATGT [CACACA_site7824],7.03
9,ATACATATAAATAATTGTACTATTAAAAAAGAACGT [XGTACX_site3751],7.3
10,AAAAAAAAAAATACTCGTACATAAACCTATACATTT [XGTACX_site6494],6.98
11,CAATTAGCATTTTATTGTACATTTATAATCTATGAT [XGTACX_site1445],7.01
12,ATAATATATTTTTGTAGTACACTTCTGGTAATATCG [XGTACX_site2402],7.22
13,AGTATACAGATATATACACACATATATATATATATA [CACACA_site4323],9.59
14,CTTAGAATATATGAATGTACTTTTTTTTTTAAATAA [XGTACX_site6048],7.09
15,TATATATATATATGTTGTACAAAAATGTAAAATATA [XGTACX_site7761],9.4
16,ATAATATTAATATGTACACACCTTAATCCTTAAAAG [CACACA_site7640],7.15
17,GTATTTATATGATTAACACACATATGGGTATTAATA [CACACA_site4853],6.96
18,ATAATTTTTTAAGTGTGTACTAAAATGTGTATTTTA [XGTACX_site6227],7.06
19,TATACCTGAATTAAAAGTACATGTATATATTTTCCC [XGTACX_site3594],6.99
20,TTGCATTTTCTAGTAACACACAATTAGCGTTGCTGT [CACACA_site3594],6.84
21,TATAGAAGCATTCACACACACACATACATACACATA [CACACA_site1466],7.15
22,TAACAAAAAGGGAACACATGCGCTCTTTATTTATTT [TGCATGCA_site620],6.68
